From PubChem BioAssay AID360 (National Center for Advancing Translational Sciences (NCATS), 2006)
The campaign covered roughly 48,000 compounds. About 550 (1.1%) were called active. This list was built around the results that the source calls inconclusive (neither active nor inactive); the mix of calls is not that of the screen. Rule as the data show it: active = potency below about 15 µM; inconclusive = mostly about 16 µM to 33 µM; inactive = weaker than that. Potencies of inconclusive entries are left out as doubtful fits.

target: Lysosomal acid glucosylceramidase (Homo sapiens) (UniProt P04062); experiment: Glucocerebrosidase; settings: purified enzyme, resorufin glucoside fluorescence (screen aimed at inhibitors), 20 min;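 also: the screen sought inhibitors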
Description: NCGC Assay Overview: Beta-glucocerebrosidase catalyzes the hydrolysis of beta-glucocerebroside to glucose and ceramide. The inherited deficiency of beta-glucocerebrosidase results in Gaucher disease, which is characterized by a wide variety of symptoms including hepatosplenomegaly, anemia, thrombocytopenia, bony lesions and bone marrow infiltration with characteristic storage cells, known as Gaucher cells. There are also forms of the disorder affecting the central nervous system. Patients with the same genotypes can manifest with diverse clinical presentations and it is believed that improper folding and trafficking of beta-glucocerbrosidase may contribute to the phenotypes observed. Low molecular weight molecules, acting as chaperones, may potentially restore trafficking of misfolded beta-glucocerebrosidase from the endoplasmic reticulum to the lysosomes, thereby enhancing functional lysosomal beta-glucocerebrosidase activity. Using normal beta-glucocerebrosidase, an assay was developed to screen for small molecule inhibitors that could potentially act as molecular chaperones on the mutant forms [developed with NIH investigator Dr. Ellen Sidransky's laboratory]. Two pro-fluorescent substrates were chosen for two screens against a small molecule library. One beta-glucocerebrosidase assay used Resorufin beta-D-Glucopyranoside (Marker Gene Technology Inc.), generating a red fluorescent product. The second assay used Fluorescein di-beta-D-Glucopyranoside, generating a blue fluorescent product. […] The IC50 values of Conduritol B Epoxide, a known glucocerebrosidase inhibitor, were determined to be 87.5 uM and 117 uM, respectively. The use of two difference pro-fluorescent substrates in the screens helped to eliminate false positives. All compounds were screened in a titration series resulting in AC50s (e.g., IC50s or EC50s).
NCGC Assay Protocol Summary: Both enzyme and substrate were diluted in buffer composed of 50mM citric acid/KH2PO4, 10mM sodium taurocholate and 0.01% tween-20 at pH 5.9. The final concentration of the enzyme was 0.2 nM in both assays. The compound library was titrated in 7 to 15 concentrations for the primary screens with a final concentration ranging from 0.6 nM to 50 uM. This particular assay protocol is for the "red" substrate, and it was performed in 1536-well plate format as follows: Red fluorescence substrate assay: 2 uL enzyme 23 nL compound 1 uL substrate (final concentration of 30 uM) Incubate at room temperature (RT) for 20 minutes Read the plate in Viewlux plate reader (Ex=548(7) and Em=600(10)).
Potency is read from the fitted curve at half-maximal effect.

Chain of UniProt P04062 (P04062 whole entry, looked up): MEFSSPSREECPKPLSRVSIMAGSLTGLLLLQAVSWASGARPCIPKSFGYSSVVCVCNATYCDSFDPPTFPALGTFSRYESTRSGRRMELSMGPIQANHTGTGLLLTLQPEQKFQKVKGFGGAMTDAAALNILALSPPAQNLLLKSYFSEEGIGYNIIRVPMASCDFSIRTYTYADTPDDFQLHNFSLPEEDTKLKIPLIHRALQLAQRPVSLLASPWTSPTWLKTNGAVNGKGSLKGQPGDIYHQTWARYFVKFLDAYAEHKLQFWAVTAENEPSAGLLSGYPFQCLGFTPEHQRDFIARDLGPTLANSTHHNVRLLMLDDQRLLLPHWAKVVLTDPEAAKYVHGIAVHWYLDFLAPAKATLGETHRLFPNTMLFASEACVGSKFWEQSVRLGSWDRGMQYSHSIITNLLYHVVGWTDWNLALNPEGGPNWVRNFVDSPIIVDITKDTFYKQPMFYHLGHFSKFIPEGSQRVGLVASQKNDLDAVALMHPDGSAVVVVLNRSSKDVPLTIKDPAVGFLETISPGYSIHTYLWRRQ

| SMILES | Potency |
| --- | --- |
| c1cncc(Nc2nc(-c3cccnc3)cs2)c1 | inconclusive [decreasing] |
| COc1cccc(C2CC(c3ccc(Cl)cc3Cl)Nc3nc(N)nn32)c1 (centres undefined) | inconclusive [decreasing] |
| NC(=O)c1ccccc1NS(=O)(=O)Cc1ccc(Cl)cc1 | inactive: > 76.9 µM |
| CCCS(=O)(=O)Nc1cc(C(F)(F)F)ccc1OCCOC | inactive: > 76.9 µM |
| COc1ccc(N(CC(=O)NC2CCCC2)C(=O)Cn2nnc(-c3ccc(F)cc3)n2)cc1OC | active: 8.56 µM |
| COc1ccccc1N1CCN(C(=O)c2oc3cc(C)c(C)cc3c2C)CC1 | inconclusive [increasing] |
| O=C(Nc1ccc(-c2cn3ccsc3n2)cc1)C1COc2ccccc2O1 (centres undefined) | inconclusive [decreasing] |
| CCOc1ccccc1NC(=O)c1ccccc1NS(C)(=O)=O | inconclusive [increasing] |
| CCCCCn1c(Sc2nc3ccccc3s2)nc2c1c(=O)[nH]c(=O)n2C | inconclusive [increasing] |
| COc1cc(C2N3CC4(C)CN2CC(C)(C3)C4)ccc1O (centres undefined) | inconclusive [decreasing] |
| O=C(CSCCO)Nc1ccc(C2CCCCC2)cc1 | inconclusive [decreasing] |
| CC(=O)n1c2ccccc2c2c(C#N)c(N3CCCCC3)sc21 | inactive: > 76.9 µM |
| Nc1nc2c(s1)CC(c1ccccc1)CC2 (centres undefined) | inconclusive [decreasing] |
| COc1cccc(N2CCN(Cc3nc(N)nc(Nc4ccccc4OC)n3)CC2)c1 | active: 3.91 µM |
| CCOC(=O)c1cccc(NC(=O)CN(c2ccc(C)cc2)S(=O)(=O)c2c(C)n[nH]c2C)c1 | inconclusive [decreasing] |
| COc1ccc(NS(=O)(=O)c2ccc(NC(=O)C(C)(C(F)(F)F)C(F)(F)F)cc2)nn1 | inconclusive [decreasing] |
| Nc1nnc(CCC2CCCCC2)s1 | inactive: > 76.9 µM |
| CCc1ccc2[nH]c(=O)c(C(c3nnnn3CCOC)N3CCN(c4ccccc4)CC3)cc2c1 (centres undefined) | inactive: > 76.9 µM |
| CCN(c1cccc(C)c1)S(=O)(=O)c1ccc2[nH]c(=O)c(=O)[nH]c2c1 | active: 7.43 µM |
| COCCN1Cc2cccc(C(=O)Nc3cc(C)cc(C)c3)c2C1=O | inactive: > 76.9 µM |
| O=C(CSc1nn(-c2ccc(F)cc2)c(=S)s1)NC(=O)NCc1ccco1 | inconclusive [decreasing] |
| COc1cccc(-c2ccc(-c3noc(-c4ccccc4F)n3)c(OC)n2)c1 | active: 10.4 µM |
| O=S(=O)(Nc1ccc2c(c1)OCCO2)c1ccc2oc3ccccc3c2c1 | inconclusive [decreasing] |
| O=C(Nc1ccc(NC(=O)C2CC2)nc1)c1cccs1 | inconclusive [increasing] |
| Cc1nnc(NC(=O)C2CCN(c3nnnn3-c3ccccc3)CC2)s1 | active: 8.69 µM |

| SMILES | Potency |
| --- | --- |
| CC(=O)N1CCN(CC(O)COc2ccc(OCc3ccccc3)cc2)CC1 (centres undefined) | inconclusive [decreasing] |
| COc1ccc(OC)c(NC(=O)c2nnn(Cc3ccccc3C)c2N)c1 | inconclusive [decreasing] |
| Cc1cc(SCC(=O)Nc2c(C)n(C)n(-c3ccccc3)c2=O)n2c(nc3ccccc32)c1C#N | inconclusive [decreasing] |
| Cc1ccc2nc(S(=O)(=O)O)[nH]c2c1 | inactive: > 76.9 µM |
| COC(=O)c1[nH]c2cc(OC)c(OC)cc2c1NC(=O)CN1CCN(Cc2ccccc2)CC1 | inconclusive [decreasing] |
| CCN1C(=O)c2cccc3c(S(=O)(=O)Nc4c(C)n(C)n(-c5ccccc5)c4=O)ccc1c23 | inactive: > 76.9 µM |
| CC(C)C(=O)N1CCN(c2ccc(NC(=O)c3ccc(Br)o3)cc2)CC1 | inconclusive [decreasing] |
| O=C(NCCc1c[nH]c2ccccc12)c1cc(S(=O)(=O)N2CCCCC2)ccc1N1CCOCC1 | inconclusive [decreasing] |
| O=C(Nc1ccccc1)N1CCCC(c2nc(-c3cccs3)no2)C1 (centres undefined) | active: 0.707 µM |
| O=C(c1cccs1)N1CCCC(c2ccccc2)C1 (centres undefined) | inactive: > 76.9 µM |
| C=CCN1C(=O)C(O)(CC(=O)c2ccc(-n3cccc3)cc2)c2ccccc21 (centres undefined) | inactive: > 76.9 µM |
| Cn1c(=O)c2nc(NCc3ccccc3)cnc2n(C)c1=O | inactive: > 76.9 µM |
| COc1ccccc1NC(=O)C1=C(C)NC(SCC(=O)c2ccccc2)=C(C#N)C1c1ccco1 (centres undefined) | inactive: > 76.9 µM |
| COc1cc2c(cc1NC(=O)COC(=O)C1CC(=O)N(Cc3ccco3)C1)oc1ccccc12 (centres undefined) | inconclusive [increasing] |
| Cc1ccc(-c2cc(C(=O)OCC(=O)Nc3cc(C)on3)c3ccccc3n2)c(C)c1 | inactive |
| Cn1c(SCc2c(F)cccc2Cl)nnc1-c1cccs1 | inconclusive [decreasing] |
| COc1ccc(C)cc1NC(=O)C1CCCN1C(=O)OCc1ccccc1 (centres undefined) | inconclusive [decreasing] |
| CC(=O)Nc1cccc(-c2csc(NCc3ccco3)n2)c1 | inconclusive [decreasing] |
| CN1CCN(Cc2nc3c([nH]2)c(=O)[nH]c(=O)n3C)CC1 | inactive: > 76.9 µM |
| Cc1ccc2c(c1)nnn2C1CCN(S(=O)(=O)c2ccc(C(=O)N3C(C)CCCC3C)cc2)CC1 (centres undefined) | inconclusive [decreasing] |
| Cn1c(SCCOc2cccc(Cl)c2)nnc1-c1ccncc1 | inconclusive [decreasing] |
| O=C(NCc1ccco1)C1CCN(C(=O)c2cc3sccc3n2Cc2ccc(F)cc2)CC1 | inconclusive [decreasing] |
| O=C(COC(=O)CCC(=O)c1cccs1)NCc1ccco1 | inconclusive [decreasing] |
| O=C(C1CCCCC1)N1CCC(c2nc3c(nnn3Cc3ccccc3Cl)c(=O)[nH]2)CC1 | inconclusive [decreasing] |
